About 1,700 (3.3%) of roughly 52,000 compounds were called active. No stated cut-off is given here; in the data, active means survival mostly below about 52% (no sharp cut-off); inactive means mostly above about 56%. Some of the results follow.

This assay has as its system Wild type. Description: S. aureus survival, RN4220 and DeltatarO strains – OD600, teichoic acid synthesis inhibitors, primary screen (AID 463173). Particulars: S. aureus RN4220 wild type/DeltatarO growth, OD600, 18 h, hits give low values, screened at 18.75 µg/mL (by protocol).
Regarding `CCOCCc1nn2c(=O)cc(COC(=O)c3ccccc3NC(=O)c3ccccc3F)nc2s1`, the survival is inactive: 73%.

Take `CC1CCN(S(=O)(=O)c2ccc3c(c2)CCN3C(=O)Nc2cccc(Br)c2)CC1`: the survival is inactive: 84%.

For the compound `Cc1ccc(-c2nc3n(n2)C(c2ccccc2Cl)C=C(c2ccc(Cl)cc2)N3)cc1` (centres undefined), the survival is inactive: 78%.

As for `O=C(NCC(c1ccc2c(c1)OCO2)N1CCN(c2ccccc2)CC1)C(=O)Nc1ccc(F)cc1` (centres undefined), the survival is inactive: 71%.

Turning to `CC(=O)Oc1ccc(Nc2nc3nonc3nc2Nc2ccccc2)cc1`, the survival was inactive: 104%.

For `CCOc1ccc(C(=O)c2cn(CC(=O)Nc3ccc(OC)cc3)c3cc4c(cc3c2=O)OCO4)cc1`, the survival was inactive: 82%.

As for `CC(C)CCn1c(=O)c2cccnc2n(CC(=O)Nc2ccccc2)c1=O`, the survival was inactive: 77%.

Consider `Cc1oc(-c2ccc(C(=O)NCCC(C)C)cc2)nc1CS(=O)(=O)c1ccccc1`, for which the survival was inactive: 73%.

With `CCOC(=O)c1c(C)[nH]c(C)c1S(=O)(=O)N1CCCC(C(=O)Nc2ncccc2C)C1` (centres undefined), the survival was inactive: 59%.

Consider `COC(=O)c1sccc1S(=O)(=O)N(CC(=O)NCc1ccc(C)cc1)c1ccccc1`, for which the survival is inactive: 72%.

As to `CC(C)C(=O)Nc1cccc(-c2nc3ccccc3o2)c1`, the survival was inactive: 103%.

As for `OC(C#CCN1CCOCC1)(c1ccccc1)c1ccccc1`, the survival was inactive: 107%.

Turning to `N#Cc1c[nH]n2c(NC3CCCC3)c(-c3cccc(Br)c3)nc12`, the survival is inactive: 48%.

In the case of `Cc1ccn2c(NC(=O)c3cccc(Cl)c3)c(-c3ccccc3)nc2c1`, the survival was inactive: 62%.

On to `CCOCCCn1c(=N)c(C(=O)NC(C)c2ccccc2)cc2c(=O)n3cc(C)ccc3nc21` (centres undefined), for which the survival is inactive: 83%.

On to `CCc1ccc(CNc2ncc(-c3cccc(OC)c3)n2C)cc1`, for which the survival was active: 4%.

Consider `CCCC(=O)N1CCc2cc(OC)c(OC)cc2C1COc1ccccc1OC` (centres undefined), for which the survival is inactive: 22%.

For the compound `Cc1cccc(C)c1NC(=O)Cn1c(=O)n(Cc2ccc(C(=O)NCc3ccco3)cc2)c(=O)c2sccc21`, the survival is inactive: 81%.

As for `CCOC(=O)Cc1cc(C(=O)Nc2ccc(Br)cc2)sc1-c1ccc(C)cc1`, the survival is inactive: 119%.

As for `Cc1cc(C)cc(OCC(=O)Nc2nonc2-c2ccc(Br)cc2)c1`, the survival was inactive: 120%.

As for `O=C(NCC1CCCO1)C1CC(c2ccccc2O)=NO1` (centres undefined), the survival was inactive: 129%.

With `Cc1nc2sc(C)c(C)n2c(=O)c1S(=O)(=O)N1CCN(c2ccccc2F)CC1`, the survival is inactive: 88%.

In the case of `Cc1cccc(N2CCN(C(=O)c3ccc4nc(N5CCC(C)CC5)sc4c3)CC2)c1C`, the survival was active: 1%.

`Cc1ccc2c(Sc3ccc(Cl)cc3)c(C(=O)NCCC(C)C)[nH]c2c1`: the survival is inactive: 91%.

Source of the values: PubChem BioAssay AID463173 (ICCB-Longwood Screening Facility, Harvard Medical School, 2010).
